Source: the supplement of paper PMC4967469
IC50 is the fitted dose that halves viability relative to control wells, and lower means more sensitive; fits outside the tested doses are given as limits. AUC is the area under the same curve over the 256-fold range up to the top dose, as a fraction: 1 means no effect, lower means more sensitive. For some assays here: Where the top dose is marked as inferred, it was calculated from the reported fits.

Tests used:
Experiment in all cases: Viability of human cancer cell lines after 72 h of drug (GDSC screen)
Nutlin-3a = compound: COc1ccc(C2=N[C@@H](c3ccc(Cl)cc3)[C@@H](c3ccc(Cl)cc3)N2C(=O)N2CCNC(=O)C2)c(OC(C)C)c1 [Nutlin-3a]
Method: (§1)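 Human cancer cell lines in 384-well plates, medium with 10% serum, drug for 72 h over a 256-fold dose range (nine 2-fold or five 4-fold steps up to the top dose). Adherent lines were fixed and stained with the nucleic acid dye Syto60, suspension lines read with resazurin; signal relative to control wells, capped at 0 and 100%. One two-parameter sigmoid per drug and line, fitted in a mixed model over all curves with the slope shared within a line.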

CX-5461 = compound: Cc1cnc(CNC(=O)c2c(=O)c3ccc(N4CCCN(C)CC4)nc3n3c2sc2ccccc23)cn1 [CX-5461]; details: top dose 10.24 µM; top dose inferred
Method: as §1

CP724714 = compound: COCC(=O)NC/C=C/c1ccc2ncnc(Nc3ccc(Oc4ccc(C)nc4)c(C)c3)c2c1 [CP724714]; details: top dose 10.24 µM; top dose inferred
Method: as §1

Obatoclax mesylate = compound: COC1=CC(c2cc3ccccc3[nH]2)=N/C1=C\c1[nH]c(C)cc1C [Obatoclax mesylate]; details: top dose 16 µM
Method: as §1

STF-62247 = compound: Cc1cccc(Nc2nc(-c3ccncc3)cs2)c1 [STF-62247]; details: top dose 10.24 µM; top dose inferred
Method: as §1

Row | Cell Line | AUC (Nutlin-3a) | IC50 (Nutlin-3a) | AUC (CX-5461) | IC50 (CX-5461) | AUC (CP724714) | IC50 (CP724714) | AUC (Obatoclax mesylate) | IC50 (Obatoclax mesylate) | AUC (STF-62247) | IC50 (STF-62247)
1 | 8-MG-BA (glioma, adherent, top dose 8 µM) | 0.987 | > 8 µM |  |  |  |  |  |  |  | 
2 | 42-MG-BA (glioma, adherent, top dose 8 µM) | 0.977 | > 8 µM |  |  |  |  |  |  |  | 
3 | 201T (lung adenocarcinoma, adherent, top dose 8 µM) | 0.977 | > 8 µM |  |  |  |  |  |  |  | 
4 | 451Lu (melanoma, adherent, top dose 8 µM) | 0.967 | > 8 µM |  |  |  |  |  |  |  | 
5 | SNU-423 (liver, adherent) |  |  | 0.983 | > 10.2 µM | 0.954 | > 10.2 µM | 0.23 | 0.141 µM | 0.958 | > 10.2 µM
6 | SNU-449 (liver, adherent) |  |  | 0.986 | > 10.2 µM | 0.904 | > 10.2 µM | 0.267 | 0.201 µM | 0.986 | > 10.2 µM
7 | SNU-475 (liver, adherent) |  |  | 0.966 | > 10.2 µM | 0.989 | > 10.2 µM | 0.951 | > 16 µM | 0.987 | > 10.2 µM
8 | SNU-C2B (large intestine, adherent) |  |  | 0.928 | > 10.2 µM | 0.949 | > 10.2 µM | 0.476 | 0.841 µM | 0.978 | > 10.2 µM
9 | SU8686 (pancreas, adherent) |  |  | 0.956 | > 10.2 µM | 0.983 | > 10.2 µM | 0.385 | 0.463 µM | 0.975 | > 10.2 µM
10 | SU-DHL-5 (B-cell lymphoma, suspension) |  |  | 0.329 | 0.244 µM | 0.939 | > 10.2 µM | 0.009 | < 0.0625 µM | 0.71 | 2.1 µM
11 | SUIT-2 (pancreas, adherent) |  |  | 0.614 | 1.34 µM | 0.969 | > 10.2 µM | 0.082 | < 0.0625 µM | 0.946 | > 10.2 µM
12 | SW13 (adrenal gland, adherent) |  |  | 0.988 | > 10.2 µM | 0.974 | > 10.2 µM | 0.362 | 0.414 µM | 0.988 | > 10.2 µM
13 | SW48 (large intestine, adherent) |  |  | 0.67 | 1.9 µM | 0.971 | > 10.2 µM | 0.464 | 0.8 µM | 0.971 | > 10.2 µM
14 | SW156 (kidney, adherent) |  |  | 0.985 | > 10.2 µM | 0.968 | > 10.2 µM | 0.55 | 1.39 µM | 0.966 | > 10.2 µM
15 | SW620 (large intestine, adherent) |  |  | 0.763 | 3.28 µM | 0.98 | > 10.2 µM | 0.035 | < 0.0625 µM | 0.947 | > 10.2 µM
16 | SW626 (ovary, adherent) |  |  | 0.954 | > 10.2 µM | 0.787 | 5.36 µM | 0.172 | 0.0805 µM | 0.974 | > 10.2 µM
17 | SW756 (cervix, adherent) |  |  | 0.985 | > 10.2 µM | 0.973 | > 10.2 µM | 0.175 | 0.0824 µM | 0.985 | > 10.2 µM

Row | Cell Line | AUC (Nutlin-3a) | IC50 (Nutlin-3a) | AUC (CX-5461) | IC50 (CX-5461) | AUC (CP724714) | IC50 (CP724714) | AUC (Obatoclax mesylate) | IC50 (Obatoclax mesylate) | AUC (STF-62247) | IC50 (STF-62247)
18 | SW780 (bladder, adherent) |  |  | 0.986 | > 10.2 µM | 0.98 | > 10.2 µM | 0.579 | 1.68 µM | 0.985 | > 10.2 µM
19 | SW837 (large intestine, adherent) |  |  | 0.726 | 3.52 µM | 0.952 | > 10.2 µM | 0.39 | 0.452 µM | 0.982 | > 10.2 µM
20 | SW900 (lung squamous cell carcinoma, adherent) |  |  | 0.941 | > 10.2 µM | 0.983 | > 10.2 µM | 0.708 | 4.28 µM | 0.985 | > 10.2 µM
21 | SW948 (large intestine, adherent) |  |  | 0.966 | > 10.2 µM | 0.972 | > 10.2 µM | 0.75 |  | 0.979 | > 10.2 µM
22 | SW1088 (glioma, adherent) |  |  | 0.982 | > 10.2 µM | 0.981 | > 10.2 µM | 0.643 | 2.8 µM | 0.981 | > 10.2 µM
23 | SW1271 (small cell lung carcinoma, adherent) |  |  | 0.849 | 9.53 µM | 0.984 | > 10.2 µM | 0.061 | < 0.0625 µM | 0.982 | > 10.2 µM
24 | SW1417 (large intestine, adherent) |  |  | 0.986 | > 10.2 µM | 0.979 | > 10.2 µM | 0.194 | 0.101 µM | 0.985 | > 10.2 µM
25 | SW1463 (large intestine, adherent) |  |  | 0.976 | > 10.2 µM | 0.845 | > 10.2 µM | 0.511 | 1.09 µM | 0.974 | > 10.2 µM
26 | SW1573 (lung adenocarcinoma, adherent) |  |  | 0.981 | > 10.2 µM | 0.981 | > 10.2 µM | 0.629 | 2.57 µM | 0.973 | > 10.2 µM
27 | SW1710 (bladder, adherent) |  |  | 0.973 | > 10.2 µM | 0.974 | > 10.2 µM | 0.111 | < 0.0625 µM | 0.898 | > 10.2 µM
28 | SW1783 (glioma, adherent) |  |  | 0.991 | > 10.2 µM | 0.988 | > 10.2 µM | 0.243 | 0.199 µM | 0.991 | > 10.2 µM
29 | SW1990 (pancreas, adherent) |  |  | 0.982 | > 10.2 µM | 0.975 | > 10.2 µM | 0.321 | 0.287 µM | 0.98 | > 10.2 µM
30 | Saos-2 (osteosarcoma, adherent) |  |  | 0.981 | > 10.2 µM | 0.981 | > 10.2 µM | 0.33 | 0.272 µM | 0.981 | > 10.2 µM
31 | SiHa (cervix, adherent) |  |  | 0.987 | > 10.2 µM | 0.986 | > 10.2 µM | 0.686 | 3.61 µM | 0.986 | > 10.2 µM
32 | T47D (breast, adherent) |  |  | 0.95 | > 10.2 µM | 0.924 | > 10.2 µM | 0.524 | 1.2 µM | 0.977 | > 10.2 µM
33 | T84 (large intestine, adherent) |  |  | 0.891 | > 10.2 µM | 0.979 | > 10.2 µM | 0.281 | 0.237 µM | 0.981 | > 10.2 µM
